This is one part of the list. Antibody binding of pooled human sera (four to six donors per pool; dilution not stated) to peptides of the Trypanosoma cruzi antigen TSSA on microarrays. Quantile-normalised fluorescence in arbitrary units, mean of duplicate arrays; higher = more binding. No active / inactive call. The uninfected pools are read here as the healthy donors of the same country. The strongest signals lie near the top of the scale (about 60,000).

The experiment concerns pooled sera of chronic Chagas disease patients, Argentina. As to the kind of experiment: antibody binding signal (normalised fluorescence) (arbitrary fluorescence units); higher = stronger serum antibody binding to peptide. How it is done:
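Microarray of 15-residue peptides over residues 30-55 of Trypanosoma cruzi TSSAII, each with 1 to 10 substitutions at naturally variable positions, probed with one serum pool per country.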
With PPSGKENKPATGETP, the antibody binding signal was 38400. In the case of KAAAGGTPSPSGASS it was 229. The same measure for DNKAATGGAPSPSGA: 601; for GKDNKAATGGAPSPS: 736. The same measure for SGTDKKAATGGTPSP: 1060; for SGKDNKAAAGGTPSQ: 545; for GTDKKPATGGTPSQP: 585. The sequence GTDNKAATGGTPSQS registered an antibody binding signal of 421. In the case of KDNKTATGGTPSPSG it was 447.

With TENKTATGGAPSPPG, the antibody binding signal stood at 26900.

Turning to PPSGKEKKPAAGGAP, the antibody binding signal was 1540. With KDNKTATGETPSQSG, the antibody binding signal was 1110.

As to PPSGKDNKAATGGAP, the antibody binding signal is 612. KDNKAATGGAPSQPG gave an antibody binding signal of 342. The same measure for TPPSGTDNKAAAGGT: 47300; for GKDKKTAAGEAPSPS: 318. The same measure for GKEKKAAAGEAPSPS: 6270; for SGKENKPAAGGAPSP: 3740.

In turn, TPPSGKEKKTAAGGA displayed an antibody binding signal of 4630. Consider GTDNKTATGGAPSQP, for which the antibody binding signal turned out to be 752.

SSTPPSGTDKKPAAG came in with an antibody binding signal of 40100. Sequence SGTDNKPAAGGTPSQ had an antibody binding signal of 2580. Regarding SGKDKKPATGGTPSQ, the antibody binding signal was determined as 1100. For the sequence TEKKPAAGGAPSPSG, the antibody binding signal is 1290. SGKDNKTAAGGTPSQ yielded an antibody binding signal of 1560. KDKKPATGGAPSPPG returned an antibody binding signal of 444. The same measure for GKEKKAAAGGAPSQP: 605; for SGKDKKAAAGETPSQ: 544; for TPPSGKDNKAATGET: 5400. The same measure for GTENKPATGGTPSPP: 44100; for GKDKKPAAGEAPSQP: 2790. Sequence PPSGTDKKPATGGTP had an antibody binding signal of 21900. SGTDNKAATGETPSP returned an antibody binding signal of 5830. The same measure for KENKTAAGGTPSPSG: 469.

In turn, DKKTATGGTPSQSGA gave an antibody binding signal of 543.

The sequence GTDNKPAAGGAPSPP gave an antibody binding signal of 3170. Regarding PPSGTDKKPATGETP, the antibody binding signal is 34100.

Take GKDNKPAAGGAPSQS: the antibody binding signal was 444.

KDNKPAAGGTPSQSG yielded an antibody binding signal of 185. The same measure for KDKKTAAGGTPSQSG: 276.

For the origin of these results see the supplement of paper PMC10441789.
